# The supplement of paper PMC3334620
# The full ranking holds about 33,000 sequences; the median of “E-score (-0.5 to 0.5)” is about -0.032, and the highest 2% start at about 0.36. Some of the results follow.
# Target: T1, Sko1 (UniProt Q02100)
# T1 sequence: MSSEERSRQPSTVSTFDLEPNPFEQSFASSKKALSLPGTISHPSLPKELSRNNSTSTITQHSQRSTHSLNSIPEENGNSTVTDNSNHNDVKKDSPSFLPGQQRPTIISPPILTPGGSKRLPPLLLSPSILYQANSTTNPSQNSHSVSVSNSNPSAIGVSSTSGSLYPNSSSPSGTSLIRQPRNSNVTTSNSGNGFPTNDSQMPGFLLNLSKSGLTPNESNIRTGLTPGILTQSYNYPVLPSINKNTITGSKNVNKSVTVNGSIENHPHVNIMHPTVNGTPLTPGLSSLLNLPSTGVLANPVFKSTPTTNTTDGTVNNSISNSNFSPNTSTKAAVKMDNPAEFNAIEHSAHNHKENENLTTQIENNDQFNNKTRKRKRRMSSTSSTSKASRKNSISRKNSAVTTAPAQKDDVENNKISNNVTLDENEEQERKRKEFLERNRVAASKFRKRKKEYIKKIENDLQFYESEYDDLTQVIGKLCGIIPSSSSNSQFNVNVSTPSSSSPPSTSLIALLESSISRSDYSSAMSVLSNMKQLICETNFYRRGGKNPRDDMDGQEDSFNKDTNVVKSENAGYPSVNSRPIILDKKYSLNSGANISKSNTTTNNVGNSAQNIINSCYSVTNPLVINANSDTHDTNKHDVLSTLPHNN
# Test: PBM E-score (8-mer binding enrichment) (E-score (-0.5 to 0.5)); higher = stronger / more preferred TF binding; most listed sequences are background and not binding sites
# Details: protein concentration: 200 nM; construct: GST-full length
# In short: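 Universal all-10-mer Agilent arrays, double-stranded by primer extension on fresh or once-stripped slides, were probed with about 100-200 nM GST-tagged yeast transcription factors made by PURExpress. Fluorescent anti-GST detected bound protein, and masliner normalised the scans. E-scores from the Universal PBM Analysis Suite were given to each ungapped eight-base word pooled with its reverse complement.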
row,Sequence,PBM E-score
1,GCGAGTCC,-0.334
2,CTGTCGCC,-0.277
3,ATCGGGCC,-0.222
4,AATCAACA,0.202
5,CTTGAGCC,-0.324
6,GAGCTCTA,-0.162
7,CGCCTGGA,-0.175
8,ACATCTAG,-0.0627
9,ATCAACAC,0.104
10,CTTCATAC,0.101
11,CCGTGCGA,-0.0151
12,CTGAAAGA,-0.0455
13,TCTAGACA,0.00373
14,AAGCAGAC,-0.211
15,AGTGGAAA,-0.0144
16,GGCAATAC,0.0466
17,CGAGACCG,-0.248
18,GCCTTCGA,-0.202
19,ACCATGGC,-0.0206
20,CTTATCCA,0.0147
21,AAAAGATA,0.222
22,CCATCCCG,-0.175
23,GATTTGCA,0.0954
24,AACTCCTG,-0.114
25,TATCTCAA,0.292

row,Sequence,PBM E-score
1,AACCGATA,0.0484
2,AATGGCGA,0.0785
3,ACACCGTG,-0.162
4,CCGGTTGC,-0.0613
5,GTGCTTTA,0.0343
6,GAGAGCGA,-0.12
7,AATTCGTA,0.386
8,CCTTTGCC,-0.173
9,CACACATG,-0.0923
10,GGTGTGAA,0.114
11,ACATTAGA,0.0175
12,CCTAATAG,-0.0863
13,CGTTGCAG,0.00309
14,GGCTTGAA,0.0693
15,CCAACCCG,-0.184
16,GGTTTTAA,-0.0912
17,AGACCCTG,-0.24
18,AACATGCA,0.127
19,CCTAGCTC,-0.211
20,TAATCGAA,0.16
21,CAAGATGG,-0.23
22,CCACTGCA,-0.123
23,AAATGGGA,-0.183
24,CAAATTGG,0.178
25,GCGAAAAA,0.13

row,Sequence,PBM E-score
1,AGACGGCC,-0.254
2,AGACCTAC,0.0184
3,CATCTAAG,-0.0102
4,CACTTTGG,-0.0531
5,TCGATAAA,0.0914
6,AGGGGTTA,-0.257
7,GCCTTCAC,-0.149
8,ATTGGAAA,0.0614
9,AGTAAAAT,0.192
10,TATCAATA,0.223
11,AACCACAC,0.179
12,CAATGCAA,-0.00957
13,GTACCTTA,0.171
14,GCCTAACA,-0.0138
15,CTGACAGA,0.0772
16,CGGAGACC,-0.309
17,CTATTAAG,-0.153
18,TCACGGAA,0.156
19,AGCCGCCA,-0.396
20,CGGGCTCA,-0.332
21,AAGCATCC,-0.175
22,GTGTTACA,0.0921
23,AAACGCTA,0.0383
24,GACGACAA,0.188
25,AGGCGATA,-0.204

row,Sequence,PBM E-score
1,GCCGTAGC,-0.328
2,CGTCAGAG,0.429
3,ATGTCCCG,-0.227
4,GGGCCTAC,-0.216
5,CACTGGCG,-0.133
6,CCTACAAA,-0.0324
7,GCACCACC,-0.221
8,ACCCGAGA,-0.227
9,AGACCCGG,-0.241
10,CGGTGAGA,0.0109
11,ACTGTGCT,-0.0224
12,CAATACAC,0.236
13,AAGCCGAA,-0.0554
14,ACTGACTA,0.0497
15,GTTTAATA,0.218
16,ACCTCTAT,-0.238
17,CCGTACCC,-0.335
18,CGCCGCCA,-0.168
19,AAAACCTA,0.168
20,AAGTAAAA,0.0455
21,AATCCAAG,0.0599
22,TCCGGACA,-0.0176
23,TACCTATA,0.0587
24,GCTCGTAA,0.231
25,GCCACTAA,-0.066

row,Sequence,PBM E-score
1,ACTCGGCA,-0.163
2,GCACACAA,0.0196
3,AAGTGTCA,-0.131
4,CAAATGTG,0.0776
5,AAGTGAAC,-0.0503
6,AGGGAGAT,-0.298
7,GTGCTCCA,0.00811
8,ACAAAAGC,-0.0688
9,ATGATACC,0.118
10,AACGCTGC,0.00058
11,GTAGGTGA,0.211
12,CGTAAGCC,0.203
13,TCAGATGA,0.179
14,AGTAATAG,0.264
15,AGGGGCCA,-0.333
16,CGATGGCC,-0.189
17,CTCGACTA,-0.153
18,CAGGGCAC,-0.107
19,GCAGTACC,-0.0592
20,ATCTGTAG,-0.0704
21,GCCACAGC,-0.259
22,TACACGGA,0.142
23,AAGCGACG,-0.0227
24,AACTCAAA,0.0306
25,TATCTAAA,0.0894

row,Sequence,PBM E-score
1,AAAAAGCC,-0.102
2,AGATTGTA,0.0877
3,ATGGGGAG,-0.0947
4,GGTTTCGA,-0.219
5,CCGGTAAG,-0.0749
6,GCGCTCTA,-0.155
7,TAACGCGA,0.0991
8,GATCGCGA,-0.0804
9,TGACGAAA,0.463
10,CTGTACAA,-0.0117
11,TACGGAGA,-0.00834
12,TAGAAGAA,-0.145
13,CCGAAGTA,-0.114
14,AGTTTTAT,0.185
15,CGCCATAC,0.245
16,CAAATAAC,0.33
17,AATCAACT,0.141
18,CAATGCCA,-0.128
19,CGTTCTTA,0.207
20,ACATCGCC,-0.0592
21,AACCATTC,-0.0657
22,CGACATAG,0.0941
23,TGGCATAA,0.215
24,GGGGCGAC,-0.228
25,TCCTGCAA,0.0258

row,Sequence,PBM E-score
1,CGTACGCA,0.332
2,CTGGAGAC,-0.00968
3,TGACTGCA,-0.0463
4,AAAAATTG,0.168
5,AAAGGACG,0.11
6,TGCATCAA,0.105
7,ATATAAAG,0.0959
8,GGCGCATA,-0.0137
9,CATGAGAC,-0.0597
10,CTCTGAAG,-0.182
11,CAAGACCG,-0.262
12,ACTGCCTC,-0.233
13,TGGCCTAA,0.0672
14,AACCGTCT,-0.239
15,ATCATCCA,0.013
16,CACATCGC,-0.0517
17,AAAACGTC,0.409
18,GATAGTAA,0.0985
19,GTCAAAAC,0.173
20,TATGTACA,0.254
21,AAAGCCAC,-0.0209
22,AGGCCCGC,-0.102
